# Experimental data: PMC7673117
# Amino acid sequences for entries named in this document (tags omitted). Residues count along the entry.
# UniProt P13747, residues 22-358: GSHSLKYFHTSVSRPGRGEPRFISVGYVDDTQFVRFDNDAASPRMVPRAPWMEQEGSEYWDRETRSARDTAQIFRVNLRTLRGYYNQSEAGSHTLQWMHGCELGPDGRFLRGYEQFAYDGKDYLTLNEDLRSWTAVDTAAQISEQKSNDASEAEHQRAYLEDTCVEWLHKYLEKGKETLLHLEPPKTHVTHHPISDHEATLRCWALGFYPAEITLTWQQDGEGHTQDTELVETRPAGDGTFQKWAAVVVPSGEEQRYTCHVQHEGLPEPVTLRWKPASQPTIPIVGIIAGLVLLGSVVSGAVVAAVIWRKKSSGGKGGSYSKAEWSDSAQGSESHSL
# Results are given in words; binding and its absence hold for the method and conditions named. Some binding calls cover weakened binding; strength is not graded here.
# Biological target: human leukocyte antigen (HLA)-E on 721.174 cells (human (endogenous in 721.174 cells)) (UniProt P13747)
# Test: flow cytometry on cells; HLA-E surface stabilisation: TAP-deficient 721.174 cells incubated overnight at 26 °C, 5% CO2 in R10 medium with 0–200 μM peptide (200 µM in the screen), stained with anti-HLA-E-PE (clone 3D12); binders defined by an MFI greater than the mean plus 1.5 standard deviations of the No Peptide condition; only the binder purified
row,Binder,binding
1,SQAPLPCVL [BZLF1 peptide from an EBV lytic protein],binds
2,GGDPHVPTL [LMP1 peptide variant … (GGD_VP)],binds
3,GCDPHLPTL [LMP1 peptide variant … (GCD)],no binding (tested: 0–200 μM)
4,GDDPHLPTL [LMP1 peptide variant … (GDD)],no binding (tested: 0–200 μM)
